# Measured values from the supplement of paper PMC4604168 (melanoma cell lines).
# This is one part of the list. Repeats are few or missing, and single values can be far off.
# Test system: SkMel28
# Experiment: cell count relative to DMSO control; melanoma cells; higher = more viable cells
# Settings: library dose: standard library concentration; 72 h
# 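Further: cells treated in 1,536-well plates, then fixed and DAPI-stained, with nuclei counted from automated high-throughput microscope images.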
row,SMILES,cell count
1,"C[C@@H]1CCN(C(=O)CC#N)C[C@@H]1N(C)c1ncnc2[nH]ccc12 + O=C(Nc1ccccc1)c1cc([N+](=O)[O-])ccc1Cl [GW9662] (first compound 5 µM, partner dose 10 µM)",58%
2,"C[C@@H]1CCN(C(=O)CC#N)C[C@@H]1N(C)c1ncnc2[nH]ccc12 + CC(C)CCN1c2nc(Nc3cc(F)c(O)c(F)c3)ncc2N(C)C(=O)C1C [BID1870] (first compound 5 µM, partner dose 1 µM)",51.9%
3,"O=C(O)c1ccc(-c2c[nH]c3ncc(-c4ccccc4)cc23)cc1C1CCCC1 + Oc1cc(-c2nc(-c3ccccc3)[nH]c2-c2ccncc2)ccc1Cl [L779450] (first compound 0.8 µM, partner dose 1 µM)",41.7%
4,"Cn1cncc1[C@@](N)(c1ccc(Cl)cc1)c1ccc2c(c1)c(-c1cccc(Cl)c1)cc(=O)n2C [tipifarnib] + O=S(=O)(c1ccccc1)N(CC(F)(F)F)c1ccc(C(O)(C(F)(F)F)C(F)(F)F)cc1 [T0901317] (first compound 0.05 µM, partner dose 7 µM)",61.9%
5,"CC1(C)NC(=O)N(c2ccc([N+](=O)[O-])c(C(F)(F)F)c2)C1=O [nilutamide] + O=S(=O)(c1ccccc1)N(CC(F)(F)F)c1ccc(C(O)(C(F)(F)F)C(F)(F)F)cc1 [T0901317] (first compound 5 µM, partner dose 7 µM)",58.1%
6,"O=C(Nc1cccc(Cl)c1)Nc1ncc(CCNc2ncnc3ccsc23)s1 + COc1ccc(-c2ccc3c(N4CCOCC4)nc(N4C[C@@H](C)O[C@@H](C)C4)nc3n2)cc1CO [KU0063794] (first compound 0.004 µM, partner dose 0.1 µM)",53.1%
7,"CC1(C)NC(=O)N(c2ccc([N+](=O)[O-])c(C(F)(F)F)c2)C1=O [nilutamide] + CCCCCCCCCCCC1=C(O)C(=O)C=C(O)C1=O [Embelin] (first compound 5 µM, partner dose 6 µM)",90.3%
8,"COc1cc(Nc2ncc(F)c(Nc3ccc4c(n3)NC(=O)C(C)(C)O4)n2)cc(OC)c1OC [Tamatinib] + COc1cc(N2CCC(N3CCN(C)CC3)CC2)ccc1Nc1ncc(Cl)c(Nc2ccccc2S(=O)(=O)C(C)C)n1 [NVP-TAE684] (first compound 2 µM, partner dose 0.4 µM)",49.2%
9,"COc1cc(Nc2ncc(F)c(Nc3ccc4c(n3)NC(=O)C(C)(C)O4)n2)cc(OC)c1OC [Tamatinib] + Cc1cc([N+](=O)[O-])ccc1NS(=O)(=O)c1cc(Cl)ccc1Cl [FH535] (first compound 2 µM, partner dose 5 µM)",32.3%
10,"CC1(C)NC(=O)N(c2ccc([N+](=O)[O-])c(C(F)(F)F)c2)C1=O [nilutamide] + COc1ccc(-c2ccc3c(N4CCOCC4)nc(N4C[C@@H](C)O[C@@H](C)C4)nc3n2)cc1CO [KU0063794] (first compound 5 µM, partner dose 0.1 µM)",106%
11,"O=C(O)c1ccc(-c2c[nH]c3ncc(-c4ccccc4)cc23)cc1C1CCCC1 + COc1cc(N2CCC(N3CCN(C)CC3)CC2)ccc1Nc1ncc(Cl)c(Nc2ccccc2S(=O)(=O)C(C)C)n1 [NVP-TAE684] (first compound 0.8 µM, partner dose 0.4 µM)",70%
12,"Cn1cncc1[C@@](N)(c1ccc(Cl)cc1)c1ccc2c(c1)c(-c1cccc(Cl)c1)cc(=O)n2C [tipifarnib] + CCCCCCCCCCCC1=C(O)C(=O)C=C(O)C1=O [Embelin] (first compound 0.05 µM, partner dose 6 µM)",47.1%
13,"CC1(C)NC(=O)N(c2ccc([N+](=O)[O-])c(C(F)(F)F)c2)C1=O [nilutamide] + CCN(CC)CCCCNc1ncc2cc(-c3cc(OC)cc(OC)c3)c(NC(=O)NC(C)(C)C)nc2n1 [PD173074] (first compound 5 µM, partner dose 0.5 µM)",110%
14,"C[C@@H]1CCN(C(=O)CC#N)C[C@@H]1N(C)c1ncnc2[nH]ccc12 + CCc1ccc(CCOc2ccc(CC3SC(=O)NC3=O)cc2)nc1 [pioglitazone] (first compound 5 µM, partner dose 10 µM)",82.6%
